We go through 90 compounds from publication PMC4336329 (PLoS ONE, 2015).

SMILES strings stand for the structures. In all, about 310,000 compounds went through this assay and about 2,200 (0.71%) showed an effect of 50% or more. Effects have a minus sign here. This is one part of the list.

Sequence of human ether-à-go-go-related gene (hERG) potassium channel (Q12809 whole entry, looked up): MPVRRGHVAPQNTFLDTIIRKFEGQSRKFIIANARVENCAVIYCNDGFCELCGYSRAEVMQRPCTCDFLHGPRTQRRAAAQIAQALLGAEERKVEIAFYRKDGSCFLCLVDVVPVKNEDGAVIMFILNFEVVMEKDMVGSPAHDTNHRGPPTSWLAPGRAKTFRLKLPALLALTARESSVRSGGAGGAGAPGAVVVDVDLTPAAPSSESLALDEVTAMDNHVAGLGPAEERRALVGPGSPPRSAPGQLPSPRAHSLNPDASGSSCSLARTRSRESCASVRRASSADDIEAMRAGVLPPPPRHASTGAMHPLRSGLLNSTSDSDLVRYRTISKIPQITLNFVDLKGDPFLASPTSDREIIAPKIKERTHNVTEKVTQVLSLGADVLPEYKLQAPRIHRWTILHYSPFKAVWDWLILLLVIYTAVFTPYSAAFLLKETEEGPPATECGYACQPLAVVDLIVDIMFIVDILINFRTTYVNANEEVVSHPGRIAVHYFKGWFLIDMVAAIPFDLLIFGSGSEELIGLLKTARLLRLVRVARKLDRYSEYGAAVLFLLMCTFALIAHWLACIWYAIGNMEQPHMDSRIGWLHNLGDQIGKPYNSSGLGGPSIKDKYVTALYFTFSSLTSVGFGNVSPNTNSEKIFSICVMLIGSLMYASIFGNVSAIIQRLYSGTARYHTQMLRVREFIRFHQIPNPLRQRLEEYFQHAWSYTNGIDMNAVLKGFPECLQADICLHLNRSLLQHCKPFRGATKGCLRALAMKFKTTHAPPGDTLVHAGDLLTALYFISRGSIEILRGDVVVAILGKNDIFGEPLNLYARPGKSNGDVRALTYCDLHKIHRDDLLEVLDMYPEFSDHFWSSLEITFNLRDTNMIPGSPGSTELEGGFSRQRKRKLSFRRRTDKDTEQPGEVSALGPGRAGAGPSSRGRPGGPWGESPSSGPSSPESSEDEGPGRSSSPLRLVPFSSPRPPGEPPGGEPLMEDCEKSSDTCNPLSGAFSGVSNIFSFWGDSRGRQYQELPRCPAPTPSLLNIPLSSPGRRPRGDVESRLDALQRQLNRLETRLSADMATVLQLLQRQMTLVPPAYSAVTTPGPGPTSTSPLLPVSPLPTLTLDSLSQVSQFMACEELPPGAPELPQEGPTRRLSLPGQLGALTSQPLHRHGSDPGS

This assay addresses human ether-à-go-go-related gene (hERG) potassium channel (human, UniProt Q12809). As to the kind of experiment: primary screen, population patch clamp on CHO cells stably expressing hERG.
As for `COc1ccc(O)c(CN2CCCC(N3CCN(c4ccccc4OC)CC3)C2)c1` (stereo not drawn), the “hERG current change (%, negative = inhibition) at 1uM” value is 6.44%.

In the case of `Clc1ccc(-c2nnc(-c3ccccc3)c(-c3ccccc3)n2)cc1`, the “hERG current change (%, negative = inhibition) at 1uM” value turned out to be 10.5%. For `Cc1cnc([N+](=O)[O-])n1CCOC(=O)NC(=O)c1ccc(C(F)(F)F)cc1` the value was -12.2%; for `Cc1cc(Cl)ccc1NNC(=O)CCc1ccccc1`, 10.5%; for `CCCC(C(=O)NCc1ccco1)N(C(=O)CNS(=O)(=O)c1ccccc1)c1ccccc1OC` (stereo not drawn), -6.7%. As to `Cc1ccc(N(C)C(=O)c2cnn(-c3ccccc3)c2C)c(C)c1`, the “hERG current change (%, negative = inhibition) at 1uM” value is recorded as 10%.

Consider `Oc1c(Cl)cc(Cl)cc1C1Nc2ccccc2-n2cccc21` (stereo not drawn), for which the “hERG current change (%, negative = inhibition) at 1uM” value was determined as 12.6%. For `COc1cccc(CNC(=O)CCNS(=O)(=O)c2cccc3nonc23)c1` the value was 16%. The value for `CC(C)(C)C(C(=O)n1cccc1C#N)c1ccccc1` (stereo not drawn) was 12.9%; that for `COCCCNC(=O)C1CCCN(S(=O)(=O)c2cccc3nsnc23)C1` (stereo not drawn) was 6.21%; that for `O=C(CSc1nnc(-c2ccc3c(c2)OCO3)o1)Nc1ncc(Cl)cc1Cl` was 3.82%. With `Cc1nc2ncnn2c(N2CCN(c3cccc(C(F)(F)F)c3)CC2)c1C`, the “hERG current change (%, negative = inhibition) at 1uM” value was -15.6%. The value for `COc1ccc(NC(=O)COc2cccc(-n3cnnn3)c2)cc1Cl` was 21.9%; that for `CN(CCOc1ccc(Cl)cc1)C(=O)c1cc([N+](=O)[O-])ccc1N1CCOCC1` was -19.4%; that for `COc1cccc(OC)c1C(=O)OCC(=O)NC1CCCCCC1` was 7.12%. For `COc1cccc(C2C(C(=O)NCc3ccccc3)=C(C)Nc3ncnn32)c1` (stereo not drawn) the value was -6.64%. Consider `COc1ccc(OC)c(-c2csc(NC(=O)CSCc3c(C)noc3C)n2)c1`, for which the “hERG current change (%, negative = inhibition) at 1uM” value is listed as 0.673%. For `CC12CCC(=O)N1C(C(=O)Nc1nnc(SCc3ccccc3)s1)CS2` (stereo not drawn) the value was 14.2%; for `Cc1cc(C)n(C(=O)c2ccncc2)n1`, 16.7%. The value for `Fc1ccc(NC2=NCCS2)cc1Cl` was 1.2%.

As for `O=C(c1ccc(OC2CCN(CCc3ccccc3)CC2)cc1)N1CCCC1`, the “hERG current change (%, negative = inhibition) at 1uM” value is recorded as -1.63%. The value for `COc1ccc(-n2c(Cn3c(=O)sc4ccccc43)nnc2SCC(=O)N2CCCC2)cc1` was 2.06%. The value for `CCOC(=O)c1cc(CC)sc1NC(=O)C(c1ccccc1)c1ccccc1` was 11.9%; that for `C/C(=C\C(=O)c1cccnc1)Nc1ccc(C)c(C)c1` was -4.61%; that for `CC(=O)Nc1ccc(SC[C@H](Cc2ccccc2)N2CC[C@@H](C(C)(C)C)CCC2=O)cc1` was 15%. With `Cc1ccc2sc(NNC(=O)C3=COCCO3)nc2c1C`, the “hERG current change (%, negative = inhibition) at 1uM” value is on record as 8.38%.

Regarding `C/C(=N\Nc1ccc(Cl)c(C(=O)O)c1)c1ccccn1`, the “hERG current change (%, negative = inhibition) at 1uM” value is given as 8.23%.

On to `Cc1ccc(S(=O)(=O)NC2=C(N3CCN(c4ccccc4F)CC3)C(=O)c3ccccc3C2=O)cc1`, for which the “hERG current change (%, negative = inhibition) at 1uM” value is 15.4%. For the compound `CCc1nc(SCC(=O)NC2CC2)c2c(C)c(C)sc2n1`, the “hERG current change (%, negative = inhibition) at 1uM” value is listed as -4.16%. The value for `O=C(CCC1CCCCC1)Nc1ccccc1-c1ccccc1` was 10.6%; that for `O=C(CN1C(=O)NC(Cc2ccccc2)C1=O)Nc1ccc(OC(F)F)cc1` (stereo not drawn) was -46.7%; that for `COc1ccc(N2CC(C(=O)N[C@@H](C)C(=O)N3CCCCC3)CC2=O)cc1` (stereo partly drawn) was 12.2%. For the compound `CCO[C@@H]1OC(C(=O)N2CCCCCCC2)=C[C@H](c2ccc3c(c2)OCO3)[C@H]1CCCO`, the “hERG current change (%, negative = inhibition) at 1uM” value is given as -1.26%. On to `COC(=O)c1ccc(OCc2cc(=O)n3ccsc3n2)cc1`, for which the “hERG current change (%, negative = inhibition) at 1uM” value is 8.79%. For `C=CCN1CCN(Cc2cnc(Cl)s2)CC1` the value was 3.5%; for `CC(C)(C)c1ccc(-c2ncccc2O)cc1.Cl`, 7.72%; for `Cl.O=C(c1ccc2c(c1)OCCO2)N1CCN(Cc2ccccc2)CC1`, 13.4%. The value for `Cc1nc(NS(=O)(=O)c2ccccc2)sc1C(C)(C)C` was -1.22%.

Turning to `COc1ccccc1CNC(=O)Cc1cc(=O)[nH]c(=O)[nH]1`, the “hERG current change (%, negative = inhibition) at 1uM” value came out at 4.92%. `CC(=O)Nc1ccc(CN(C)CC2CCCN(CCc3cccc(C(F)(F)F)c3)C2)cc1` (stereo not drawn): the “hERG current change (%, negative = inhibition) at 1uM” value is -18.4%. On to `OCC[C@@H]1C[C@@H](O)[C@H](O)[C@]2(CCCCO2)O1`, for which the “hERG current change (%, negative = inhibition) at 1uM” value is given as 20.4%.

For `O=C(Nc1nccs1)c1nc(-c2ccccc2)n(-c2ccccc2)n1`, the “hERG current change (%, negative = inhibition) at 1uM” value is recorded as 12.9%. Consider `CCCN(S(=O)(=O)c1ccc(OCC)cc1)S(=O)(=O)c1cccs1`, for which the “hERG current change (%, negative = inhibition) at 1uM” value is given as 9.59%. The value for `Clc1nc2nc3n(c2nc1Cl)CCC3` was 1.96%; that for `O=C(CN1CCc2ccccc2C1)NCC(=O)Nc1ccc(F)cc1` was 10.6%; that for `CC(Sc1cccc2cccc(C(=O)O)c12)C(=O)O` (stereo not drawn) was 20.7%. In the case of `COc1ccc(C2=NN(C(=O)c3ccccc3)C(c3ccccc3)C2)c(O)c1` (stereo not drawn), the “hERG current change (%, negative = inhibition) at 1uM” value is recorded as 16.7%. In the case of `Cc1ccc(NC(=O)CCNCc2ccco2)cc1S(=O)(=O)N(C)C.O=C(O)C(=O)O`, the “hERG current change (%, negative = inhibition) at 1uM” value is given as 7.87%. For `CC(C)(C)NC(=O)NC(=O)COc1ccccn1` the value was 21.2%; for `O=C1CN(C(=O)COC(=O)c2ccco2)c2ccccc2N1`, 14.9%; for `CCOc1ccc(CN2CCC(n3nccc3NC(=O)CCCc3ccccc3)CC2)cc1`, -88.8%. For `Cc1cc(S(=O)(=O)Nc2ccc(C(=O)NCC3(N4CCCCC4)CCCCC3)cc2)ccc1F` the value was -38.3%. For `CN(Cc1ccsc1)C(=O)Cn1cc(Br)ccc1=O`, the “hERG current change (%, negative = inhibition) at 1uM” value is given as -2.27%. The value for `CCNC(=S)Nc1cc(C(=O)N2CCCC2)ccc1N1CCCC1` was 7.09%; that for `Cc1ccc(CC(=O)N2CCN(C)CC2)cc1` was 14.9%; that for `CN(C)n1cnc2ccsc2c1=O` was 12.9%. In the case of `COCCNC(=O)Cn1c(=O)n(Cc2ccco2)c(=O)c2ccccc21`, the “hERG current change (%, negative = inhibition) at 1uM” value is 2.05%. The value for `O=S(=O)(c1ccccc1)c1nc(-c2cccs2)oc1NCCCn1ccnc1` was -33.4%; that for `CCCCNC(=S)Nc1cccc(S(=O)(=O)NC2=NCCC2)c1` was 11%; that for `CCCOc1ccccc1/C=C(\C#N)C(=O)Nc1cccc(C)n1` was 11.6%. In the case of `CC(Cc1ccccc1)N/C=C1/CC(=O)NC1=O` (stereo not drawn), the “hERG current change (%, negative = inhibition) at 1uM” value is reported as 5.22%. On to `COc1ccc(/C=N/NC(=O)Cn2ccnc2C)cc1OC`, for which the “hERG current change (%, negative = inhibition) at 1uM” value is 11.2%.

In the case of `O=C1C2C(c3ccccc3)C=CC(c3ccccc3)C2C(=O)N1C1CCCCC1` (stereo not drawn), the “hERG current change (%, negative = inhibition) at 1uM” value came to 10.5%.

Turning to `CC(=O)c1ccc(NC(=O)CSc2nnc(Cn3cnc4ccccc43)o2)cc1`, the “hERG current change (%, negative = inhibition) at 1uM” value was 10.7%. Regarding `CC(C)N1C2OC(C3OC4C(O3)N(C(C)C)S(=O)(=O)N4C(C)C)OC2N(C(C)C)S1(=O)=O` (stereo not drawn), the “hERG current change (%, negative = inhibition) at 1uM” value is 7.85%. For `Cc1ccc(NC(=O)CCN2C(=O)c3ccccc3Sc3ncccc32)cc1`, the “hERG current change (%, negative = inhibition) at 1uM” value amounted to 8.05%. For the compound `Br.Cc1ccc(Cn2c(=N)n(CC(=O)c3ccc([N+](=O)[O-])cc3)c3ccccc32)cc1`, the “hERG current change (%, negative = inhibition) at 1uM” value is reported as 2.29%. For `Cc1nn(CC2CC2)c(=O)n1-c1ccccc1` the value was 11.1%. For `CSc1ccc(C#N)cc1NC(=O)c1ccc(Cl)nc1`, the “hERG current change (%, negative = inhibition) at 1uM” value is listed as 10.5%. On to `O=C(c1cccc2c1-c1ccccc1C2)N1CCCCC1`, for which the “hERG current change (%, negative = inhibition) at 1uM” value was 4.11%. For the compound `CC(C)c1nn2c(=O)cc(COc3cccc(NC(=O)c4ccco4)c3)nc2s1`, the “hERG current change (%, negative = inhibition) at 1uM” value is reported as 17.7%. For `O=C(Cn1cnc2ccccc2c1=O)N1CCc2ccccc2C1`, the “hERG current change (%, negative = inhibition) at 1uM” value worked out at 7.18%.

Consider `COc1ccc(C2(CNC(=O)/C=C\c3ccco3)CCCC2)cc1OC`, for which the “hERG current change (%, negative = inhibition) at 1uM” value is 10.4%. The value for `C=C(C)Cn1c(SCC#N)nc2ccccc2c1=O` was 3.85%; that for `CCC(=O)OCC(=O)Nc1ccc(OC)cc1[N+](=O)[O-]` was 15.8%; that for `CCOC(=O)c1cn(CC)c2ccc(S(=O)(=O)N3CCC(C)CC3)cc2c1=O` was -4.51%. The value for `O=C1N=C(N2CCCC2)S/C1=C\c1ccccc1` was 12.3%; that for `C(=Nc1cccc2c(N=Cc3ccco3)cccc12)c1ccco1` was 16.9%. As for `Cc1c(Br)c([N+](=O)[O-])nn1CC(=O)Nc1ccc(C(N)=O)cc1`, the “hERG current change (%, negative = inhibition) at 1uM” value was 12.1%. For `N=C1SCC(=O)N1c1ncc(Cc2ccc(F)cc2)s1` the value was 7.93%; for `CC(C)OC(=O)C(C#N)c1nc2ccccc2nc1N1CCCC1` (stereo not drawn), 12.3%; for `CC(CCCCC(=O)Nc1ccc(C(F)(F)F)cc1)NCCc1cnc[nH]1.O=C(O)/C=C\C(=O)O` (stereo not drawn), -3.77%. On to `CC(C)Cc1ccc(C(C)C(=O)N2CCOCC2)cc1` (stereo not drawn), for which the “hERG current change (%, negative = inhibition) at 1uM” value was -1.62%.

For the compound `COc1ccc(CNC(=O)COC(=O)c2nc3nc(C)cc(C)n3n2)cc1`, the “hERG current change (%, negative = inhibition) at 1uM” value came to 14.3%. The value for `CCOCCSC1=C(C#N)C(c2cccs2)C(C(C)=O)=C(C)N1` (stereo not drawn) was 9.75%; that for `N=C(N)N1CCN(Cc2ccccc2)CC1.O=S(=O)(O)O` was 9.39%.

As to `COc1ccccc1NC(=O)CN(c1ccccc1F)S(C)(=O)=O`, the “hERG current change (%, negative = inhibition) at 1uM” value is listed as 8.06%.

Consider `O=C(CNC(=O)c1ccc(Cl)cc1)OCc1nc2ccccc2s1`, for which the “hERG current change (%, negative = inhibition) at 1uM” value was found to be 8.88%.

On to `Cc1cc(N/N=C/c2ccc(Cl)cc2Cl)nc(NCc2ccccc2)n1`, for which the “hERG current change (%, negative = inhibition) at 1uM” value came out at 14.9%.

Take `COC(=O)C1NN=C(C(=O)c2ccc(Cl)cc2)C1c1ccc(OC)cc1` (stereo not drawn): the “hERG current change (%, negative = inhibition) at 1uM” value is given as -1.69%.
